Results on 57 compounds are retold here after the supplement of paper PMC9446081.

The structures appear in SMILES notation. In all, about 39,000 compounds went through this assay and about 220 (0.56%) showed activity. Some of the results follow.
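Further: static incubation at 37 °C against the wild-type strain, values averaged over two biological replicates.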

This test relates to Escherichia coli K-12 BW25113. Briefly: relative growth (OD600 normalised to plate interquartile mean) (fraction); higher = less growth inhibition, active = 0.2 or less. The conditions noted are these: 50 µM; LB; incubation time: overnight (16-24 h).
For the compound `COc1ccc(S(=O)(=O)Nc2ccc3c(c2)CC(=O)N([C@H](C)CO)C[C@@H](C)[C@H](CN(C)Cc2ccncc2)O3)cc1`, the relative growth is inactive: 0.941.
The value for `Cc1n[nH]c(C)c1S(=O)(=O)N1CCCC1` was inactive: 0.978; that for `Cl.Cl.O=C(O)COCCN1CCN(C(c2ccccc2)c2ccc(Cl)cc2)CC1` (configuration not stated) was inactive: 0.971.
The value for `C[C@@H]1CCCCO[C@@H](CN(C)S(=O)(=O)c2ccc(Cl)cc2)[C@@H](C)CN([C@H](C)CO)C(=O)c2cc(NS(=O)(=O)c3ccc(F)cc3)ccc2O1` was inactive: 0.981; that for `C[C@H]1CN([C@@H](C)CO)C(=O)c2cc(NC(=O)C3CCCCC3)ccc2O[C@@H]1CN(C)S(=O)(=O)c1cn(C)cn1` was inactive: 1.01.
For `Cc1ccc(S(=O)(=O)Nc2cccc3c2O[C@H](CN(C)C(=O)Nc2cccc4ccccc24)[C@@H](C)CN([C@H](C)CO)C3=O)cc1` the value was inactive: 0.991; for `COc1ccccc1CNC(=O)C[C@@H]1C[C@@H]2c3cc(NC(=O)Cc4ccncc4)ccc3O[C@@H]2[C@@H](CO)O1`, inactive: 0.978; for `Cc1noc(C)c1NC(=O)N(C)C[C@H]1OCCCC[C@@H](C)Oc2ccc(NS(=O)(=O)c3ccccc3)cc2C(=O)N([C@H](C)CO)C[C@@H]1C`, inactive: 0.973.
Turning to `Cn1c(=O)c2c(nc(N3CCNCC3)n2CC(=O)c2ccc(Cl)cc2)n(C)c1=O`, the relative growth was inactive: 0.981.
For `C[C@H](CO)N1C[C@H](C)[C@H](CN(C)S(C)(=O)=O)OCCCC[C@H](C)Oc2ccc(NS(=O)(=O)c3cn(C)cn3)cc2C1=O` the value was inactive: 0.982; for `COc1ccc(C#Cc2ccc3c(c2)O[C@@H](CN(C)C(C)=O)[C@@H](C)CN([C@H](C)CO)S3(=O)=O)cc1`, inactive: 1.02.
The value for `COc1ccc(S(=O)(=O)Nc2ccc3c(c2)C(=O)N([C@@H](C)CO)C[C@H](C)[C@@H](CN(C)C(=O)Nc2cccc4ccccc24)O3)cc1` was inactive: 1; that for `CON=C(C(=O)NC1C(=O)N2C(C(=O)O)=C(C[N+]3(C)CCCC3)CSC12)c1csc(N)n1.[Cl-]` (configuration not stated) was active: 0.0437.
The value for `C[C@@H]1CN([C@H](C)CO)C(=O)c2ccccc2-c2ccccc2CO[C@H]1CN(C)C(=O)c1cc(Cl)cc(Cl)c1` was inactive: 0.971; that for `C[C@@H]1CN([C@@H](C)CO)C(=O)c2cc(NC(=O)Nc3ccc4c(c3)OCO4)ccc2O[C@@H](C)CCCCO[C@@H]1CN(C)S(=O)(=O)c1ccc(F)cc1` was inactive: 1.01; that for `Nc1ccn(C[C@@H](CO)OCP(=O)(O)O)c(=O)n1` was inactive: 0.985.
As to `COc1ccc(NC(=O)N(C)C[C@@H]2OCCCC[C@H](C)Oc3ccc(NS(=O)(=O)c4ccccc4)cc3C(=O)N([C@H](C)CO)C[C@@H]2C)cc1`, the relative growth is inactive: 0.971.
The value for `Cc1ccc(S(=O)(=O)N(C)C[C@@H]2OCCCC[C@@H](C)Oc3ccc(NC(=O)Nc4c(C)noc4C)cc3C(=O)N([C@H](C)CO)C[C@H]2C)cc1` was inactive: 0.99.
In the case of `CCO[C@H]1OC(C(=O)N2CCN(Cc3ccccc3)CC2)=C[C@@H](C)[C@@H]1CCCOC(=O)NCCCCCC(=O)NO`, the relative growth was inactive: 1.01.
For `Cc1noc(C)c1NC(=O)Nc1cccc2c1O[C@H](CN(C)S(=O)(=O)c1cn(C)cn1)[C@@H](C)CN([C@H](C)CO)C2=O` the value was inactive: 0.999; for `C[C@@H]1CN([C@@H](C)CO)C(=O)c2cccc(NC(=O)c3nc4ccccc4s3)c2O[C@H]1CN(C)Cc1ccc(C(F)(F)F)cc1`, inactive: 0.891.
Regarding `C[C@H](CO)N1C[C@H](C)[C@@H](CN(C)Cc2ccc(-c3ccccc3)cc2)Oc2ccc(NC(=O)Nc3ccc(C(F)(F)F)cc3)cc2CC1=O`, the relative growth is inactive: 1.03.
The value for `Cc1noc(C)c1NC(=O)N(C)C[C@@H]1Oc2c(NS(=O)(=O)c3ccccc3)cccc2C(=O)N([C@H](C)CO)C[C@H]1C` was inactive: 0.86; that for `[O-][n+]1cccc(CO)c1` was inactive: 1.01.
As to `COC(=O)[C@H](Cc1ccccc1)N1CC2=C[C@@H](C3CC3)n3c(=O)n(C)c(=O)n3[C@H]2[C@@H]1[C@@H](O)CCn1cc(C(=O)NO)nn1`, the relative growth is inactive: 0.997.
As for `C[C@@H]1CN([C@@H](C)CO)C(=O)c2c(c3ccccc3n2C)-c2ccccc2CO[C@@H]1CN(C)C(=O)CCC(F)(F)F`, the relative growth was inactive: 1.
For `CNC[C@@H]1OCCCC[C@@H](C)Oc2ccc(NC(=O)Nc3ccc(C(F)(F)F)cc3)cc2C(=O)N([C@H](C)CO)C[C@@H]1C` the value was inactive: 0.926; for `COc1ccc(CN(C)C[C@@H]2Oc3c(NS(=O)(=O)c4cn(C)cn4)cccc3C(=O)N([C@@H](C)CO)C[C@@H]2C)cc1`, inactive: 1.01.
For `Cc1noc(C)c1S(=O)(=O)N(C)C[C@@H]1Oc2ccc(NC(=O)CCC(F)(F)F)cc2CC(=O)N([C@@H](C)CO)C[C@H]1C` the value was inactive: 1.
For `C[C@@H]1CN([C@@H](C)CO)C(=O)Cc2cc(NC(=O)c3ccncc3)ccc2O[C@@H]1CN(C)Cc1ccc(C(=O)O)cc1` the value was inactive: 0.989; for `COc1ccc(S(=O)(=O)N(C)C[C@H]2OCCCC[C@@H](C)Oc3ccc(NS(=O)(=O)c4cn(C)cn4)cc3C(=O)N([C@@H](C)CO)C[C@H]2C)cc1`, inactive: 0.957.
For `COc1ccc(S(=O)(=O)Nc2ccc3c(c2)CC(=O)N([C@@H](C)CO)C[C@H](C)[C@H](CN(C)Cc2ccc(Cl)c(Cl)c2)O3)cc1`, the relative growth was inactive: 1.01.
For `C[C@@H]1CN([C@@H](C)CO)C(=O)c2cc(NS(=O)(=O)c3ccc(F)cc3)ccc2O[C@@H](C)CCCCO[C@H]1CN(C)C(=O)Cc1ccccc1` the value was inactive: 0.986; for `CC(C)NC(=O)Nc1ccc2c(c1)C(=O)N([C@@H](C)CO)C[C@@H](C)[C@H](CN(C)S(=O)(=O)c1cn(C)cn1)O2`, inactive: 0.989.
The value for `C[C@@H]1CCCCO[C@H](CN(C)S(=O)(=O)c2cccs2)[C@H](C)CN([C@H](C)CO)C(=O)c2cc(NC(=O)NC3CCCCC3)ccc2O1` was inactive: 1.02.
For `COc1ccc(S(=O)(=O)Nc2ccc3c(c2)C(=O)N([C@H](C)CO)C[C@H](C)[C@H](CN(C)C(=O)Nc2ccc(C(F)(F)F)cc2)OCCCC[C@H](C)O3)cc1` the value was inactive: 1.
With `CC[C@@H](N)c1ccc(C)cn1`, the relative growth is inactive: 0.992.
For `C[C@H]1CN([C@@H](C)CO)C(=O)c2cc(C#CCN(C)C)cnc2O[C@H]1CN(C)C(=O)CCN1CCCCC1`, the relative growth is inactive: 1.01.
On to `CC(C)NC(=O)Nc1cccc2c1O[C@@H](CN(C)Cc1ccc(-c3ccccc3)cc1)[C@H](C)CN([C@H](C)CO)C2=O`, for which the relative growth is inactive: 1.01.
Turning to `C[C@@H]1CN([C@H](C)CO)C(=O)c2cc(Br)cnc2O[C@H]1CN(C)S(=O)(=O)c1ccccc1`, the relative growth was inactive: 1.01.
For `COc1ccc(S(=O)(=O)N(C)C[C@@H]2OCc3cn(nn3)CCCC(=O)N([C@H](C)CO)C[C@@H]2C)cc1` the value was inactive: 1.04.
The value for `COCCNC(=O)C[C@@H]1C[C@@H]2c3cc(NC(=O)COC)ccc3O[C@@H]2[C@H](CO)O1` was inactive: 0.951.
As to `COC1=C2C[C@H](C)C[C@H](OC)[C@@H](O)[C@H](C)/C=C(\C)[C@H](OC(N)=O)[C@H](OC)/C=C/C=C(\C)C(=O)NC(=CC1=O)C2=O`, the relative growth was inactive: 1.01.
For the compound `C[C@H]1CN([C@@H](C)CO)C(=O)Cc2cc(NS(=O)(=O)c3ccccc3)ccc2O[C@H]1CN(C)S(=O)(=O)c1cn(C)cn1`, the relative growth was inactive: 1.01.
The value for `CC(C)C#Cc1ccc2c(c1)O[C@@H](CN(C)C(=O)c1cccc(F)c1)[C@@H](C)CN([C@@H](C)CO)S2(=O)=O` was inactive: 0.979; that for `COc1ccccc1NC(=O)N(C)C[C@@H]1Oc2cc(Br)ccc2S(=O)(=O)N([C@@H](C)CO)C[C@H]1C` was inactive: 1.01; that for `C[C@@H]1CCCCO[C@H](CN(C)C(=O)Nc2ccc3c(c2)OCO3)[C@H](C)CN([C@@H](C)CO)C(=O)c2cc(NS(=O)(=O)c3ccc(F)cc3)ccc2O1` was inactive: 1.01.
For `C[C@@H]1CN([C@@H](C)CO)S(=O)(=O)c2ccc(-c3cncnc3)cc2O[C@@H]1CN(C)C(=O)c1ccc2c(c1)OCO2` the value was inactive: 0.993.
The value for `C[C@H](CO)N1C[C@H](C)[C@H](CN(C)C(=O)Nc2ccccc2)OCCCC[C@H](C)Oc2ccc(NC(=O)NC3CCCCC3)cc2C1=O` was inactive: 0.993; that for `COc1ccc(NC(=O)N(C)C[C@H]2OCCCC[C@H](C)Oc3ccc(NC(=O)c4ccncc4)cc3C(=O)N([C@H](C)CO)C[C@@H]2C)cc1` was inactive: 1.01.
Turning to `C[C@@H]1CN([C@H](C)CO)C(=O)c2cc(C#Cc3ccccc3)cnc2O[C@H]1CN(C)S(=O)(=O)c1ccccc1F`, the relative growth is inactive: 1.03.
For `COc1ccc(NC(=O)Nc2ccc3c(c2)C(=O)N([C@H](C)CO)C[C@@H](C)[C@H](CN(C)CC2CCCCC2)OCCCC[C@@H](C)O3)cc1` the value was inactive: 0.987; for `C[C@@H]1CN([C@@H](C)CO)C(=O)c2cccc(NC(=O)Nc3ccc(F)cc3)c2O[C@H]1CN(C)S(=O)(=O)c1cn(C)cn1`, inactive: 0.984.
As for `CCCC(=O)Nc1ccc2c(c1)C(=O)N(C)[C@H]1CC[C@@H](CC(=O)NCCN3CCCCC3)O[C@@H]1CO2`, the relative growth is inactive: 1.01.
For `COc1ccc(S(=O)(=O)N(C)C[C@@H]2OCCCC[C@H](C)Oc3ccc(NC(=O)Nc4ccccc4)cc3C(=O)N([C@H](C)CO)C[C@H]2C)cc1` the value was inactive: 1.02; for `O=C(NCc1ccccc1)[C@@H]1c2ccccc2C(=O)N(CC23CC4CC(CC(C4)C2)C3)[C@H]1c1ccc(CO)cc1`, inactive: 1.03; for `C[C@@H]1CN([C@@H](C)CO)S(=O)(=O)c2ccc(C#Cc3ccc(F)cc3)cc2O[C@@H]1CN(C)S(C)(=O)=O`, inactive: 1.02.
